In PubChem BioAssay AID2147 (National Center for Advancing Translational Sciences (NCATS), 2009):
About 3,600 (1.6%) of roughly 230,000 compounds were called active. Inconclusive results, whose numbers are uncertain, are shown with a selection of clear calls. Calls follow the shape of the dose curve; as a rule, active = well fitted inhibition curve with a large enough effect (not every such curve was filed as active); inconclusive = small, poorly fitted or top-dose-only effect, or another doubt; inactive = no such curve, though single readings can be large or run the other way. Potencies beside an inconclusive call are fits to weak or partial responses and may not hold up.

These molecules were tested against Lysine-specific demethylase 4E (Homo sapiens) (UniProt B2RXH2) (assay: qHTS Assay for Inhibitors of Human Jumonji Domain Containing 2E (JMJD2E)). Details: JMJD2E catalytic domain, FDH-coupled NADH fluorescence (FDH is formaldehyde dehydrogenase); series mostly up to 57.1 µM.
Also: nearly all actives have a fitted effect of over 50% in size.
Potency is read from the fitted curve at half-maximal effect; tags tell the direction and shape of the fitted curve.

UniProt B2RXH2, sequence (B2RXH2 whole entry, looked up, the tested form may be a part): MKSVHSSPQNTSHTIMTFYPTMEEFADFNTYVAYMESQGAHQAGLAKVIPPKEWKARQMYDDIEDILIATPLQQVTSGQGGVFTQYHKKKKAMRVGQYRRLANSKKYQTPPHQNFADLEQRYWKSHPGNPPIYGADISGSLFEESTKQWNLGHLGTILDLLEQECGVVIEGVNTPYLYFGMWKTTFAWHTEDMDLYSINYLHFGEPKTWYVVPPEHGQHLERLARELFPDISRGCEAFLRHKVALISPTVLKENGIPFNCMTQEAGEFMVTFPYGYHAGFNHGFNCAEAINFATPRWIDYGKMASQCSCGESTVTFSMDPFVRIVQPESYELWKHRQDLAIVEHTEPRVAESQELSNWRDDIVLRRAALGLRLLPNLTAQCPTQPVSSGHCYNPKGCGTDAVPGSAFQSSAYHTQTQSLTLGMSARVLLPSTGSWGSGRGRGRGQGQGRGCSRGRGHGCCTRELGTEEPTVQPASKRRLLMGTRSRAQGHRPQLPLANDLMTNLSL

Compound	Potency
Cc1nc2ccccc2c(=O)n1CC(=O)N1CCOCC1	inactive
O=C(Nc1ccccc1N1CCN(C(=O)c2ccc(Cl)cc2)CC1)c1ccc(Br)cc1	inconclusive: 39.8 µM [inhibitor, single point]
CC1(C(=O)Nc2c(F)c(F)c(F)c(F)c2F)CC1(Br)Br (stereo unspecified)	inactive
CCOc1ccc(-n2cc(C(=O)c3cc(Cl)ccc3O)cc(C#N)c2=O)cc1	inconclusive: 39.8 µM [inhibitor, single point]
COc1ccc(C2C3=C(CCCC3=O)Nc3nc(SCc4ccc(C(=O)O)cc4)nn32)cc1OC (stereo unspecified)	inconclusive: 22.4 µM [inhibitor, single point]
Cc1n(N)c2ccccc2[n+]1CC(=O)c1ccccc1	inactive
O=C1CCCc2c1sc1nc3n(c(=O)c21)CCCCC3	inconclusive: 39.8 µM [inhibitor, single point]
Cc1cc(C(=O)COC(=O)CNS(=O)(=O)c2ccc3ccccc3c2)c(C)n1-c1ccccc1	inactive
Cc1ccc(S(=O)(=O)NC2CCCCC2)c2nsnc12	inactive
c1ccc(-c2cn3nc4c(nc3n2)CCCC4)cc1	active: 31.6 µM
Fc1ccc(CNc2nc3ccccc3n3cnnc23)cc1	inconclusive: 31.6 µM [inhibitor, partial curve]
c1ccc2c(c1)ncn2-c1ccc(-c2ccnc3ncnn23)cc1	inconclusive: 35.5 µM [inhibitor, partial curve]
O=C(C[n+]1cc(-c2ccc(Cl)c(Cl)c2)n2c1CCC2)N1c2ccccc2Sc2ccccc21	inactive
COCCNC(=O)c1ccccc1NC(=O)Cc1ccccc1	inconclusive: 39.8 µM [inhibitor, single point]
Cc1ccccc1OCC(=O)NNC(=S)NC(=O)c1ccccc1[N+](=O)[O-]	inconclusive: 39.8 µM [inhibitor, single point]
Cc1nc2c(C)cccn2c1/C(O)=C1\C(=O)C(=O)N(CCN(C)C)C1c1ccccc1 (stereo unspecified)	inconclusive: 25.1 µM [inhibitor, single point]
O=C(NNC(=S)NC(=O)c1cccs1)c1ccc(NC(=O)c2ccccc2)cc1	inconclusive: 37.7 µM [inhibitor, single point]
COc1cccc2c1OC1(CCN(C(C)C)CC1)N1N=C(c3cccnc3)CC21 (stereo unspecified)	inconclusive: 39.8 µM [inhibitor, single point]
Cc1ccc(N2CCCn3c2cc(C)c(C#N)c3=O)cc1C	inconclusive: 11.2 µM [inhibitor, partial curve]
CCOC(=O)c1[nH]c2ccccc2c1NC(=O)CN(C)C	inconclusive: 31.6 µM [inhibitor, single point]
O=C(N/N=C/c1cccs1)[C@H]1C[C@@H]1c1ccccc1	inactive
Cc1cccc(/C=C(\C(=O)C(=O)O)c2ccc3ccccc3n2)c1	inconclusive: 11.2 µM [inhibitor, partial curve]
O=C(NCc1ccc(F)cc1)c1ccc(CNc2c(N3CCOCC3)c(=O)c2=O)cc1	inactive
CCOC(=O)c1ccc(NC(=O)N2CCN(c3ccccn3)CC2)cc1	inconclusive: 25.1 µM [inhibitor, single point]

Compound	Potency
CCc1cc2c(NC3CCCC3)ncnc2s1	inconclusive: 39.8 µM [inhibitor, single point]
CCOC(=O)c1ccc(/C=C2/C=C(c3ccccc3)N(c3ccc(Cl)c(C(=O)O)c3)C2=O)cc1	inactive
c1ccc(CSc2nnc(-c3ccncc3)o2)cc1	inactive
C=CCn1c(-c2oc3nc(-c4ccccc4)cc(-c4ccccc4)c3c2N)n[nH]c1=S	inconclusive: 25.1 µM [inhibitor, single point]
C=C(C)CN=C1NN=C(c2cc(C)n(-c3ccc(C)cc3)c2C)CS1	inactive
CCNS(=O)(=O)c1ccc2c3c(cccc13)C(=O)N2	inconclusive: 25.1 µM [inhibitor, partial curve]
Cc1[nH]n2c(=O)cc(Cc3ccccc3)nc2c1C#N	inconclusive: 28.2 µM [inhibitor, partial curve]
COc1ccc(-n2cc(CN[C@H]3CCCCNC3=O)c(-c3cccc(F)c3)n2)cc1	inconclusive: 31.6 µM [inhibitor, partial curve]
CCOc1cc(CN2CCSCC2)ccc1O	inconclusive: 39.8 µM [inhibitor, single point]
COC(=O)c1[nH]c2ccc(Cl)cc2c1NC(=O)CN1CCc2cc(OC)c(OC)cc2C1	inconclusive: 25.1 µM [inhibitor, partial curve]
O=C(/C=C/C=C/c1ccc2c(c1)OCO2)N1CCCCC1	inconclusive: 31.6 µM [inhibitor, single point]
CC(=O)c1c(O)c2ccccc2n(C(C)C)c1=O	inactive
CCOc1ccc2nc(NCCNC(=S)NCCCN(C)C)c(C#N)cc2c1	inconclusive: 28.2 µM [inhibitor, single point]
O=c1c2ccccc2nc2n1CCc1c-2[nH]c2ccccc12	inconclusive: 28.2 µM [inhibitor, partial curve]
Cc1ccc(/C=N/c2sc3c(c2C#N)CCC3)o1	inconclusive: 31.6 µM [inhibitor, single point]
Cc1cc2c(cc1C)NC(c1c(C)n(C)n(-c3ccccc3)c1=O)C1=C(CC(C)(C)CC1=O)N2 (stereo unspecified)	inconclusive: 22.4 µM [inhibitor, single point]
CCOC(=O)c1c(NC(=O)c2ccc(N3C(=O)[C@@H]4[C@H](C3=O)[C@H]3C=C[C@@H]4C3)cc2)sc2c1CCCC2	inconclusive: 7.08 µM [inhibitor, single point]
Cc1nc2ccc(N)cc2s1	inactive
CC(C)(C)NS(=O)(=O)c1cccc(S(=O)(=O)c2cccc(S(=O)(=O)NC(C)(C)C)c2)c1	inconclusive: 35.5 µM [inhibitor, single point]
COc1ccc(-c2cc(C(=O)OCC(=O)NC(C)C)c3ccccc3n2)cc1	inconclusive: 28.2 µM [inhibitor, partial curve]
NCCCC[C@@H]1NC(=O)c2cc([N+](=O)[O-])cc(I)c2SC[C@@H](C(N)=O)NC(=O)[C@H](Cc2ccc(O)cc2)NC1=O	inactive
CCOC(=O)C1CN(S(=O)(=O)c2cccc(C(F)(F)F)c2)c2cc(CC(=O)OC)ccc2O1 (stereo unspecified)	inactive
CC(C)CCn1cnc2c(cnn2-c2ccc(Cl)cc2)c1=O	inconclusive: 25.1 µM [inhibitor, single point]
CC(C)C1O/C(=N/C(=O)Nc2ccc(Cl)c(Cl)c2)NC1=O (stereo unspecified)	inactive

Compound	Potency
Cc1ccc(-c2nc3c(c(=O)[nH]c(=O)n3Cc3ccccc3)n2C)o1	inconclusive: 28.2 µM [inhibitor, partial curve]
Brc1ccc(N=C/C=C/C=C/Nc2ccc(Br)cc2)cc1	inconclusive: 39.8 µM [inhibitor, single point]
CCOC(=O)c1ccccc1NC(=O)CSc1nncn1C	inconclusive: 22.4 µM [inhibitor, single point]
CCOC(=O)c1cnc2c(C(=O)OCC)cnn2c1N	inconclusive: 3.98 µM [inhibitor, full curve]
Cc1nc(NC(=O)c2cccc(-c3cc4ccccc4oc3=O)c2)ccc1Br	inconclusive: 25.1 µM [inhibitor, partial curve]
CCc1nc2ccccc2c(=O)n1NC(=O)c1c(O)c2ccccc2[nH]c1=O	inconclusive: 31.6 µM [inhibitor, single point]
CCOC(=O)Cc1cc(=O)n2[nH]c(-c3ccc(C)cc3)cc2n1	inconclusive: 28.2 µM [inhibitor, partial curve]
CCc1[nH]nc2c1C(c1cccc(OC(=O)N3CCOCC3)c1)C(C#N)=C(N)O2 (stereo unspecified)	inactive
Cc1cc(C)n(CCC(=O)N/N=C/c2ccc(Br)c([N+](=O)[O-])c2)n1	inactive
CCCCOC(=O)Nc1cc(C(=O)OC)ccc1C(=O)OC	inconclusive: 28.2 µM [inhibitor, partial curve]
COc1ccc(-c2cc(C(=O)O)c3ccccc3n2)c(OC)c1	inconclusive: 28.2 µM [inhibitor, partial curve]
COC(=O)CNC(=O)C1CCN(c2nc(C)cc(C)n2)CC1	inconclusive: 25.1 µM [inhibitor, partial curve]
O=C(Cc1c(O)c2ccccc2[nH]c1=O)NC1CCCCCCC1	inconclusive: 28.2 µM [inhibitor, partial curve]
Nc1ccccc1-c1nc2ccccc2[nH]1	inconclusive: 25.1 µM [inhibitor, partial curve]
Cc1nn(-c2ccc(F)cc2)c2c1cc(C#N)c1nc3ccccc3n12	inconclusive: 35.5 µM [inhibitor, single point]
COc1ccc(NC(=O)C=C(C)C)cc1Cl	inactive
Cc1cc(Br)ccc1OCCCCN1CCCCC1	inactive
Cc1oc2c(c(=O)c1C)C(=O)CC(c1ccccc1)C2 (stereo unspecified)	inactive
Nc1[nH]n(-c2ccccc2)c(=O)c1N=Nc1ccccc1[N+](=O)[O-]	inactive
COc1cccc(C2C(C(=O)Nc3ccccc3)=C(C)N=c3s/c(=C/c4ccc(OCC(=O)O)cc4)c(=O)n32)c1 (stereo unspecified)	inactive
O=C(C[n+]1ccc(C(=O)NCc2ccccc2)cc1)c1ccc2c(c1)OCCO2	inconclusive: 7.94 µM [inhibitor, full curve]
CCCC1=[N+](CC)CCn2c(C)ccc21	inactive
COc1ccc(-c2ccccc2)cc1NCc1ccccc1C	inconclusive: 28.2 µM [inhibitor, partial curve]
